This note sets out measurements from the supplement of paper PMC9446081.

Molecules are shown by their SMILES. About 220 (0.56%) of roughly 39,000 compounds showed activity. The list shows a part of the results.
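Further: static incubation at 37 °C against the wild-type strain, values averaged over two biological replicates.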

The assay relates to Escherichia coli K-12 BW25113. The assay can be described thus: relative growth (OD600 normalised to plate interquartile mean) (fraction); higher = less growth inhibition, active = 0.2 or less. As to conditions: 50 µM; LB; incubation time: overnight (16-24 h).
Consider `COc1ccc(NC(=O)N(C)C[C@H]2Oc3c(NC(=O)CCCCCC(=O)Nc4ccccc4N)cccc3C(=O)N([C@@H](C)CO)C[C@@H]2C)cc1`, for which the relative growth was inactive: 0.931.
In the case of `C[C@H]1[C@@H](O)[C@@H](C)\C=C/C=C\C=C/C=C\C=C/C=C\C=C/[C@@H](O[C@H]2O[C@H](C)[C@@H](O)[C@H](N)[C@@H]2O)C[C@H]2O[C@](O)(C[C@@H](O)C[C@@H](O)[C@@H](O)CC[C@@H](O)C[C@@H](O)CC(=O)O[C@H]1C)C[C@@H](O)[C@@H]2C(=O)O`, the relative growth was inactive: 1.
`Cc1noc(C)c1S(=O)(=O)N(C)C[C@H]1Oc2ccc(NS(C)(=O)=O)cc2CC(=O)N([C@@H](C)CO)C[C@H]1C`: the relative growth was inactive: 1.03.
In the case of `CCC(=O)N1CCO[C@]2(COCCN(CC(=O)NC)C2)C1` it was inactive: 0.997; in that of `Cc1noc(C)c1NC(=O)N(C)C[C@H]1Oc2ccc(NC(=O)CCN3CCOCC3)cc2C(=O)N([C@H](C)CO)C[C@@H]1C`, inactive: 0.968; in that of `C[C@H]1CCCCO[C@H](CN(C)C(=O)NC2CCCCC2)[C@@H](C)CN([C@@H](C)CO)C(=O)c2cc(NC(=O)NC3CCCCC3)ccc2O1`, inactive: 1.02.
As for `C[C@@H]1CN([C@@H](C)CO)C(=O)Cc2cc(NC(=O)CCN3CCOCC3)ccc2O[C@@H]1CN(C)CC1CC1`, the relative growth is inactive: 0.995.
For `C[C@H](O)C#Cc1ccc2c(c1)O[C@@H](CN(C)C)[C@H](C)CN([C@H](C)CO)S2(=O)=O` the value was inactive: 1.03.
Regarding `Cc1ccc(S(=O)(=O)N(C)C[C@H]2Oc3cc(C#Cc4ccccc4)ccc3S(=O)(=O)N([C@H](C)CO)C[C@@H]2C)cc1`, the relative growth is inactive: 1.02.
For `CCn1cc(C(=O)O)c(=O)c2cnc(N3CCNCC3)nc21` the value was active: 0.05; for `C[C@@H]1CN([C@@H](C)CO)C(=O)c2cc(NC(=O)Cc3ccccc3)ccc2O[C@@H]1CN(C)S(=O)(=O)c1cccs1`, inactive: 1.02.
For `CCOC(=O)CNc1nnc(N)[nH]1` the value was inactive: 1.01; for `C=C[C@@H]1C[C@]1(NC(=O)[C@@H]1C[C@@H]2CN1C(=O)[C@H](C(C)(C)C)NC(=O)O[C@@H]1C[C@H]1CCCCCc1nc3ccc(OC)cc3nc1O2)C(=O)NS(=O)(=O)C1CC1`, inactive: 0.967; for `COc1ccc(/C=C/CN(C/C=C/c2ccc(OC)cc2)CCCCNS(=O)(=O)c2cccc3cnccc23)cc1`, inactive: 0.99.
In the case of `C[C@@H]1CN([C@@H](C)CO)C(=O)c2cccc(NC(=O)c3nc4ccccc4s3)c2O[C@H]1CN(C)Cc1ccc(-c2ccccc2)cc1` it was inactive: 1.02.
Regarding `C[C@@H]1CN([C@@H](C)CO)C(=O)c2cccc(NC(=O)Nc3ccc(F)cc3)c2O[C@@H]1CN(C)S(C)(=O)=O`, the relative growth is inactive: 0.822.
